# According to publication PMC12820563, “FoxP3 forms a head-to-head dimer in vivo and stabilizes its multimerization on adjacent microsatellites”:
# This is one part of the list.
# Target: T1, MBP-FoxP1dN (Mus musculus, UniProt P58462 326-579)
# T1 sequence: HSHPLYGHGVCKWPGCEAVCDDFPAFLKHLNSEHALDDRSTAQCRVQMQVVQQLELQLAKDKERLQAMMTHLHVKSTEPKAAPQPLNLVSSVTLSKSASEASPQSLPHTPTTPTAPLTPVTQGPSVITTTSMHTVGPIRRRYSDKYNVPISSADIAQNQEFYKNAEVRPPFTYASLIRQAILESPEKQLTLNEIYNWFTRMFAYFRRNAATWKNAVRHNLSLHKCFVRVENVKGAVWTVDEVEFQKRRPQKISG
# Assay: PD-seq (MBP pull-down with sequencing); 20 mM Tris-HCl pH 7.5, 100 mM NaCl, 1.5 mM MgCl2, 0.4 uM protein, 0.1 uM dsDNA library, 30 min, room temperature, amylose pull-down; high values mean tight binding
# Details: protein: recombinant; tags: His6-MBP; chain copies: 2; dsDNA, one strand shown
# In short: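 A fragment of mouse FoxP3 or FoxP1 without its N-terminus, carrying a His6-MBP tag and produced in E. coli, was combined at 0.4 µM with a 0.1 µM degenerate double-stranded DNA library filled in with Klenow. The mixture sat for 30 min at room temperature in Tris pH 7.5 buffer containing NaCl and MgCl2. Protein–DNA complexes were captured on amylose resin, washed three times, and the DNA was freed with proteinase K, barcoded by PCR and sequenced on Illumina. Binding is expressed as reads-per-million enrichment of pull-down over input, with replicates pooled.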
row,Sequence,binding signal
1,GATGATTGTTCTCCCAGCTGATGAATTGAGCGCCTCGAGTAAACAAATTTTCCTAATCTTTCTGTTCAAGCGCCATCTAC,0.896 RPM ratio (pull-down/input)
2,GATGATTGTTCTCCCAGCTGATGAATTGATCCTATCGAGTAAACAAATTTTCCTAATCTTTCTGTTCAAGCGCCATCTAC,0.983 RPM ratio (pull-down/input)
3,GATGATTGTTCTCCCAGCTGATGAATTTGCAACATCGAGTAAACAAATTTTCCTAATCTTTCTGTTCAAGCGCCATCTAC,1.7 RPM ratio (pull-down/input)
4,GATGATTGTTCTCCCAGCTGATGAATTCATCGGATCGAGTAAACAAATTTTCCTAATCTTTCTGTTCAAGCGCCATCTAC,0.838 RPM ratio (pull-down/input)
5,GATGATTGTTCTCCCAGCTGATGAATTCTACTTGTCGAGTAAACAAATTTTCCTAATCTTTCTGTTCAAGCGCCATCTAC,0.912 RPM ratio (pull-down/input)
6,GATGATTGTTCTCCCAGCTGATGAATTACGTCGCTCGAGTAAACAAATTTTCCTAATCTTTCTGTTCAAGCGCCATCTAC,1.02 RPM ratio (pull-down/input)
7,GATGATTGTTCTCCCAGCTGATGAATTGCTTCCTTCGAGTAAACAAATTTTCCTAATCTTTCTGTTCAAGCGCCATCTAC,1.06 RPM ratio (pull-down/input)
8,GATGATTGTTCTCCCAGCTGATGAATTGCGTGCCTCGAGTAAACAAATTTTCCTAATCTTTCTGTTCAAGCGCCATCTAC,1.09 RPM ratio (pull-down/input)
9,GATGATTGTTCTCCCAGCTGATGAATTTTTATGCTCGAGTAAACAAATTTTCCTAATCTTTCTGTTCAAGCGCCATCTAC,0.981 RPM ratio (pull-down/input)
10,GATGATTGTTCTCCCAGCTGATGAATTTGTCAGTTCGAGTAAACAAATTTTCCTAATCTTTCTGTTCAAGCGCCATCTAC,1.07 RPM ratio (pull-down/input)
11,GATGATTGTTCTCCCAGCTGATGAATTTCTATGCTCGAGTAAACAAATTTTCCTAATCTTTCTGTTCAAGCGCCATCTAC,0.85 RPM ratio (pull-down/input)
12,GATGATTGTTCTCCCAGCTGATGAATTTTCCCCGTCGAGTAAACAAATTTTCCTAATCTTTCTGTTCAAGCGCCATCTAC,0.906 RPM ratio (pull-down/input)
13,GATGATTGTTCTCCCAGCTGATGAATTAAGGAGTTCGAGTAAACAAATTTTCCTAATCTTTCTGTTCAAGCGCCATCTAC,0.779 RPM ratio (pull-down/input)
14,GATGATTGTTCTCCCAGCTGATGAATTTAACCCGTCGAGTAAACAAATTTTCCTAATCTTTCTGTTCAAGCGCCATCTAC,0.896 RPM ratio (pull-down/input)
15,GATGATTGTTCTCCCAGCTGATGAATTCCCTATGTCGAGTAAACAAATTTTCCTAATCTTTCTGTTCAAGCGCCATCTAC,0.802 RPM ratio (pull-down/input)
16,GATGATTGTTCTCCCAGCTGATGAATTCTAAAGGTCGAGTAAACAAATTTTCCTAATCTTTCTGTTCAAGCGCCATCTAC,0.876 RPM ratio (pull-down/input)
17,GATGATTGTTCTCCCAGCTGATGAATTTTGCTCATCGAGTAAACAAATTTTCCTAATCTTTCTGTTCAAGCGCCATCTAC,0.986 RPM ratio (pull-down/input)
18,GATGATTGTTCTCCCAGCTGATGAATTCGCAAATTCGAGTAAACAAATTTTCCTAATCTTTCTGTTCAAGCGCCATCTAC,0.933 RPM ratio (pull-down/input)
19,GATGATTGTTCTCCCAGCTGATGAATTCCCTCGTTCGAGTAAACAAATTTTCCTAATCTTTCTGTTCAAGCGCCATCTAC,0.824 RPM ratio (pull-down/input)
20,GATGATTGTTCTCCCAGCTGATGAATTCTCTTTATCGAGTAAACAAATTTTCCTAATCTTTCTGTTCAAGCGCCATCTAC,0.967 RPM ratio (pull-down/input)
21,GATGATTGTTCTCCCAGCTGATGAATTGGGGGAATCGAGTAAACAAATTTTCCTAATCTTTCTGTTCAAGCGCCATCTAC,0.848 RPM ratio (pull-down/input)

row,Sequence,binding signal
1,GATGATTGTTCTCCCAGCTGATGAATTTGATATTTCGAGTAAACAAATTTTCCTAATCTTTCTGTTCAAGCGCCATCTAC,1.13 RPM ratio (pull-down/input)
2,GATGATTGTTCTCCCAGCTGATGAATTACCCAAATCGAGTAAACAAATTTTCCTAATCTTTCTGTTCAAGCGCCATCTAC,1.04 RPM ratio (pull-down/input)
3,GATGATTGTTCTCCCAGCTGATGAATTTTTACCTTCGAGTAAACAAATTTTCCTAATCTTTCTGTTCAAGCGCCATCTAC,0.923 RPM ratio (pull-down/input)
4,GATGATTGTTCTCCCAGCTGATGAATTGAATCAATCGAGTAAACAAATTTTCCTAATCTTTCTGTTCAAGCGCCATCTAC,0.997 RPM ratio (pull-down/input)
5,GATGATTGTTCTCCCAGCTGATGAATTCGCCTGTTCGAGTAAACAAATTTTCCTAATCTTTCTGTTCAAGCGCCATCTAC,0.847 RPM ratio (pull-down/input)
6,GATGATTGTTCTCCCAGCTGATGAATTATACCGCTCGAGTAAACAAATTTTCCTAATCTTTCTGTTCAAGCGCCATCTAC,0.892 RPM ratio (pull-down/input)
7,GATGATTGTTCTCCCAGCTGATGAATTGTGCACCTCGAGTAAACAAATTTTCCTAATCTTTCTGTTCAAGCGCCATCTAC,0.983 RPM ratio (pull-down/input)
8,GATGATTGTTCTCCCAGCTGATGAATTCCTTGCCTCGAGTAAACAAATTTTCCTAATCTTTCTGTTCAAGCGCCATCTAC,0.809 RPM ratio (pull-down/input)
9,GATGATTGTTCTCCCAGCTGATGAATTGTAACTATCGAGTAAACAAATTTTCCTAATCTTTCTGTTCAAGCGCCATCTAC,1.25 RPM ratio (pull-down/input)
10,GATGATTGTTCTCCCAGCTGATGAATTTGATTTTTCGAGTAAACAAATTTTCCTAATCTTTCTGTTCAAGCGCCATCTAC,1.05 RPM ratio (pull-down/input)
11,GATGATTGTTCTCCCAGCTGATGAATTCAAGTTCTCGAGTAAACAAATTTTCCTAATCTTTCTGTTCAAGCGCCATCTAC,0.77 RPM ratio (pull-down/input)
12,GATGATTGTTCTCCCAGCTGATGAATTTAGTTCGTCGAGTAAACAAATTTTCCTAATCTTTCTGTTCAAGCGCCATCTAC,0.974 RPM ratio (pull-down/input)
13,GATGATTGTTCTCCCAGCTGATGAATTCGCAGCATCGAGTAAACAAATTTTCCTAATCTTTCTGTTCAAGCGCCATCTAC,1.04 RPM ratio (pull-down/input)
14,GATGATTGTTCTCCCAGCTGATGAATTGAAACTTTCGAGTAAACAAATTTTCCTAATCTTTCTGTTCAAGCGCCATCTAC,0.872 RPM ratio (pull-down/input)
15,GATGATTGTTCTCCCAGCTGATGAATTACAGCTGTCGAGTAAACAAATTTTCCTAATCTTTCTGTTCAAGCGCCATCTAC,0.953 RPM ratio (pull-down/input)
16,GATGATTGTTCTCCCAGCTGATGAATTATTCGCATCGAGTAAACAAATTTTCCTAATCTTTCTGTTCAAGCGCCATCTAC,1.4 RPM ratio (pull-down/input)
17,GATGATTGTTCTCCCAGCTGATGAATTCTTTGTTTCGAGTAAACAAATTTTCCTAATCTTTCTGTTCAAGCGCCATCTAC,1.23 RPM ratio (pull-down/input)
18,GATGATTGTTCTCCCAGCTGATGAATTGTTTCCATCGAGTAAACAAATTTTCCTAATCTTTCTGTTCAAGCGCCATCTAC,1.35 RPM ratio (pull-down/input)
19,GATGATTGTTCTCCCAGCTGATGAATTCTGTACTTCGAGTAAACAAATTTTCCTAATCTTTCTGTTCAAGCGCCATCTAC,0.932 RPM ratio (pull-down/input)
20,GATGATTGTTCTCCCAGCTGATGAATTGAGAGGGTCGAGTAAACAAATTTTCCTAATCTTTCTGTTCAAGCGCCATCTAC,0.757 RPM ratio (pull-down/input)
21,GATGATTGTTCTCCCAGCTGATGAATTTTACCGATCGAGTAAACAAATTTTCCTAATCTTTCTGTTCAAGCGCCATCTAC,0.896 RPM ratio (pull-down/input)

row,Sequence,binding signal
1,GATGATTGTTCTCCCAGCTGATGAATTGGATGGGTCGAGTAAACAAATTTTCCTAATCTTTCTGTTCAAGCGCCATCTAC,0.805 RPM ratio (pull-down/input)
2,GATGATTGTTCTCCCAGCTGATGAATTAACCAATTCGAGTAAACAAATTTTCCTAATCTTTCTGTTCAAGCGCCATCTAC,0.958 RPM ratio (pull-down/input)
3,GATGATTGTTCTCCCAGCTGATGAATTTCGTAACTCGAGTAAACAAATTTTCCTAATCTTTCTGTTCAAGCGCCATCTAC,0.927 RPM ratio (pull-down/input)
4,GATGATTGTTCTCCCAGCTGATGAATTCTAAAGCTCGAGTAAACAAATTTTCCTAATCTTTCTGTTCAAGCGCCATCTAC,0.835 RPM ratio (pull-down/input)
5,GATGATTGTTCTCCCAGCTGATGAATTATTCGTATCGAGTAAACAAATTTTCCTAATCTTTCTGTTCAAGCGCCATCTAC,1.09 RPM ratio (pull-down/input)
6,GATGATTGTTCTCCCAGCTGATGAATTAGCCGAATCGAGTAAACAAATTTTCCTAATCTTTCTGTTCAAGCGCCATCTAC,0.852 RPM ratio (pull-down/input)
7,GATGATTGTTCTCCCAGCTGATGAATTTTTTCGTTCGAGTAAACAAATTTTCCTAATCTTTCTGTTCAAGCGCCATCTAC,1.05 RPM ratio (pull-down/input)
8,GATGATTGTTCTCCCAGCTGATGAATTAGCCCCATCGAGTAAACAAATTTTCCTAATCTTTCTGTTCAAGCGCCATCTAC,0.834 RPM ratio (pull-down/input)
9,GATGATTGTTCTCCCAGCTGATGAATTTGATACATCGAGTAAACAAATTTTCCTAATCTTTCTGTTCAAGCGCCATCTAC,1.19 RPM ratio (pull-down/input)
10,GATGATTGTTCTCCCAGCTGATGAATTATCTATATCGAGTAAACAAATTTTCCTAATCTTTCTGTTCAAGCGCCATCTAC,1.14 RPM ratio (pull-down/input)
11,GATGATTGTTCTCCCAGCTGATGAATTCATGTTGTCGAGTAAACAAATTTTCCTAATCTTTCTGTTCAAGCGCCATCTAC,2.26 RPM ratio (pull-down/input)
12,GATGATTGTTCTCCCAGCTGATGAATTATAAAGGTCGAGTAAACAAATTTTCCTAATCTTTCTGTTCAAGCGCCATCTAC,0.947 RPM ratio (pull-down/input)
13,GATGATTGTTCTCCCAGCTGATGAATTTCGGTGCTCGAGTAAACAAATTTTCCTAATCTTTCTGTTCAAGCGCCATCTAC,0.846 RPM ratio (pull-down/input)
14,GATGATTGTTCTCCCAGCTGATGAATTGGGTCTGTCGAGTAAACAAATTTTCCTAATCTTTCTGTTCAAGCGCCATCTAC,0.86 RPM ratio (pull-down/input)
15,GATGATTGTTCTCCCAGCTGATGAATTCTGTCTTTCGAGTAAACAAATTTTCCTAATCTTTCTGTTCAAGCGCCATCTAC,0.845 RPM ratio (pull-down/input)
16,GATGATTGTTCTCCCAGCTGATGAATTGTGTTACTCGAGTAAACAAATTTTCCTAATCTTTCTGTTCAAGCGCCATCTAC,1.29 RPM ratio (pull-down/input)
17,GATGATTGTTCTCCCAGCTGATGAATTTACGAGGTCGAGTAAACAAATTTTCCTAATCTTTCTGTTCAAGCGCCATCTAC,1.09 RPM ratio (pull-down/input)
18,GATGATTGTTCTCCCAGCTGATGAATTCACCTGATCGAGTAAACAAATTTTCCTAATCTTTCTGTTCAAGCGCCATCTAC,0.808 RPM ratio (pull-down/input)
19,GATGATTGTTCTCCCAGCTGATGAATTATATAGATCGAGTAAACAAATTTTCCTAATCTTTCTGTTCAAGCGCCATCTAC,1.05 RPM ratio (pull-down/input)
20,GATGATTGTTCTCCCAGCTGATGAATTCATATTTTCGAGTAAACAAATTTTCCTAATCTTTCTGTTCAAGCGCCATCTAC,1.74 RPM ratio (pull-down/input)
21,GATGATTGTTCTCCCAGCTGATGAATTTGCAATGTCGAGTAAACAAATTTTCCTAATCTTTCTGTTCAAGCGCCATCTAC,1.15 RPM ratio (pull-down/input)
